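Compound exposure: 48 hours, 5 concentrations, 96-well plates. At the GI50, growth is halved.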 Active and inactive are the calls of the source. No stated cut-off is given here; in the data, active = GI50 up to about 1.1 µM and inactive = higher.
Test system: NCI-H322M
Test: growth of human tumour cells (NCI), 48 h

Compound | GI50
Nc1nc(N)c2ncn(CC(CO)CC(c3ccccc3)P(=O)(O)O)c2n1 (configuration not stated) | inactive: > 100 µM
COC(=O)N1CCc2c(nc(N(C)CCO)[nH]c2=O)C1 | inactive: > 100 µM
COc1cccc(-c2nc(O)c3ccccc3n2)c1OC | inactive: > 100 µM
CCOC(=O)Oc1ccc2[nH]c3c(C)cc(N)c(C)c3c2c1 | inactive: > 100 µM
CSc1ccc(/C=C2\N=C(c3ccccc3)N(NC(=O)c3c(Cl)c(Cl)c(Cl)c(Cl)c3-c3nc4ccccc4[nH]3)C2=O)cc1 | inactive: 39.9 µM
CN(C(=O)C12C3C4C1C1C2C3C41C(N)=O)C(C)(C)C (configuration not stated) | inactive: > 100 µM
O=C1C(CN2CCOCC2)CCCC1CN1CCOCC1 (configuration not stated) | inactive: 13.9 µM
COc1ccc(NC(=O)CC(=O)n2nc(C)c(/N=N/c3cccc(C)c3)c2C)cc1 | inactive: > 100 µM
NC1C=NNC1=O (configuration not stated) | inactive: > 100 µM
CN1CCCOC(c2ccc(Cl)cc2)O1 (configuration not stated) | inactive: > 100 µM
CC[C@@]1(C[C@H]2C[C@@]3(C(=O)OC)c4[nH]c5ccccc5c4CCN3C2=S)COC2(CCCCC2)O1 | inactive: > 100 µM
CC(=O)Oc1ccc2c(-c3ccccc3)c(Oc3ccc(Cl)cc3)c(=O)oc2c1 | inactive: 15.2 µM
CN1COCN/C1=N/C#N | inactive: > 100 µM
OCC1OC(n2cnc3c2NC=NC[C@H]3O)CC1O (some centres not stated) | inactive: > 500 µM
CCNC(=O)Cc1nc2c(N)ncnc2n1C1OC(CO)C(O)C1O (configuration not stated) | inactive: > 100 µM
S=c1c2nc[nH]c2ncn1CCSC1=NC=NC2=NC=NC21 (configuration not stated) | inactive: > 100 µM
O=C1Nc2ccccc2/C1=N/NC(=S)N1CCCC1 | inactive: 2.97 µM
N=C1SCCS1 | inactive: > 100 µM
CC(C)(C)CI | inactive: 42 µM
C[S+]([O-])c1ccc(COP(N)(=O)N(CCCl)CCCl)cc1 (configuration not stated) | inactive: > 100 µM
Nn1c(Cc2ccccc2)n[nH]c1=O | inactive: > 100 µM
CC1=C2[C@@H](c3ccccc3)C3C=CC2(c2ccccc23)N(C(=O)Nc2cccc3ccccc23)C1=O (some centres not stated) | inactive: > 100 µM
COC(=O)c1ccccc1/C=C1\Cc2ccc3c(c2C1=O)CCCC3 | inactive: > 100 µM
O=[N+]([O-])c1ccc2c(c1)Sc1ccccc1N2CCCCCl | inactive: > 100 µM

Compound | GI50
O=C(OCC(OC(=O)c1ccccc1)C(OC(=O)c1ccccc1)C(OC(=O)c1ccccc1)c1cnn(-c2ccccc2)n1)c1ccccc1 (configuration not stated) | inactive: > 100 µM
CC(=O)OC1CC2(O)C(CCC3(C)C(c4ccc(=O)oc4)CCC32O)C2(C)C1=CC(O)C1OC12 (configuration not stated) | active: 0.0361 µM
CC(C)C1CSC2N1C(=O)C2(OCc1ccccc1)C1CC1 (configuration not stated) | inactive: > 100 µM
COc1cc2c(cc1OC)-c1cc3cc(OC)c(OC)cc3n1CC2 | inactive: > 100 µM
COc1ccc(-c2cn3c(n2)sc2cc(C)ccc23)cc1 | inactive: 31.6 µM
COc1ccc(/C=N/n2cnc3[nH]c(C)c(Cc4ccccc4)c3c2=N)cc1 | inactive: > 100 µM
CC(CC[C@@H](O)C(C)(C)O)C1[C@@H](O)CC2(C)C3CC(O)C4C(C)(C)[C@@H](OC5OC(CO)C(O)C(O)C5O)CC[C@@]45C[C@@]35CC[C@]12C (some centres not stated) | inactive: > 10 µM
CCOc1ccc(NC(=O)CC2SC(Nc3ccc(Cl)cc3)=NC2=O)cc1 (configuration not stated) | inactive: > 100 µM
NC(Cc1ccnnc1)C(=O)O (configuration not stated) | inactive: > 100 µM
CCOC(=O)c1c[nH]cc1-c1cn(S(=O)(=O)c2ccccc2)cc1C | inactive: 29.4 µM
CC(=O)C1CCN(c2ccccc2)C1 (configuration not stated) | inactive: > 100 µM
CCOC(=O)C1C(O)CC2c3ccccc3-c3ccccc3C21 (configuration not stated) | inactive: 32.6 µM
C/C(CC(=O)Nc1ccc([N+](=O)[O-])cc1)=N\Nc1ccc([N+](=O)[O-])cc1[N+](=O)[O-] | inactive: > 100 µM
O=C1Nc2ccccc2/C1=C1\C(=O)Nc2ccccc21 [ISOINDIGO] | inactive: 36.5 µM
CC[C@@]1(O)C[C@H](OC2CC(N(C)C)C(OC3CC(O)C(OC4CCC(=O)C(C)O4)C(C)O3)C(C)O2)c2c(cc3c(c2O)C(=O)c2c(O)ccc(O)c2C3=O)[C@H]1C(=O)OC (some centres not stated) | active: 0.01 µM
CC(C)[C@@H]1CC[C@@H](C)C[C@H]1OC(=O)c1c2n(c3ccccc13)C[C@H]1OC(C)(C)O[C@@H]21 | inactive: 18.5 µM
CN1CCN(C(=O)CCC(=O)Nc2cc3c(c4ccccc24)-c2ccc4ccccc4c2C3)CC1 | inactive: 1.56 µM
NCCCCNCCCN1CC1 | active: 0.236 µM
O=C1[C@@H]2C[C@@H](O)CN2C(=O)c2ccccc2N1CCCO | inactive: > 100 µM
C/C(=N\NC(=S)N1CCN(C)CC1)c1nc2cccnc2[nH]1 | inactive: > 100 µM
Clc1ccc(/C=N/c2ccc3c(c2)Cc2ccccc2-3)c(Cl)c1 | inactive: > 100 µM
COc1ccc(NC(=S)N/N=C/c2c(C)n(C)n(-c3ccccc3)c2=O)cc1 | inactive: 74.1 µM
CC1(CNCc2ccccc2)CC(CCc2ccccc2)N(C(=O)c2ccc([N+](=O)[O-])cc2)C1Cc1ccc(O)cc1 (configuration not stated) | inactive: 15.9 µM

Source: ChEMBL document CHEMBL1201862, “PubChem BioAssay data set” (2004)
